# About 530 (0.16%) of roughly 340,000 compounds were called active. The inconclusive results got no clear call from the source; some entries with a clear call stand among them for comparison. Cut-off read from the data, not from the text of the source: active = activity change below about -80%; inconclusive = between about -30% and that limit; inactive = weaker than that.
# Assay: Small Molecules that selectively kill Giardia lamblia: qHTS;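 note: parasites exposed to compound for two days anaerobically before the ATP read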
# Settings: Giardia lamblia trophozoite viability; at 7.66 µM; hits give low values
# Outline: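 Luminescent ATP signal served as the viability read-out, measured 15-30 min after adding ATP detection reagent to trophozoites that had been incubated with compounds for 48 hrs at 37 deg C anaerobically at 100 cells/well.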
# % is set by controls: 0 for no effect and ±100 for the full control effect.
row,Compound,activity change
1,COc1ccc(C)cc1NC(=O)c1cc(S(=O)(=O)N2CCCC2)cn1C,inconclusive: -63.8% [inhibitor]
2,CCOCCCNc1nc2c(-c3ccccc3)nnn2c2ccccc12,inconclusive: -32.2% [inhibitor]
3,Cc1ccc(NC(=O)CSc2ncn[nH]2)c([N+](=O)[O-])c1,inconclusive: -35.5% [inhibitor]
4,Cc1cc(C)n2nc(CC(=O)NNC(=O)c3ccc(N(C)C)cc3)nc2n1,inconclusive: -38.6% [inhibitor]
5,COCCNc1nnc(SCC(=O)NC(=O)c2ccc(Cl)cc2)s1,inconclusive: -32.5% [inhibitor]
6,O=C(NCCc1ccccc1)C(=O)c1c(-c2ccccc2)cc2ccccn12,inconclusive: -32.8% [inhibitor]
7,CCc1cccc(NS(=O)(=O)c2ccc3c(c2)n(C)c(=O)n3C)c1,inactive: -0.313%
8,CC(C)Cc1cc(C(=O)Nc2cccc(O)c2)no1,inconclusive: -42% [inhibitor]
9,O=C1CCN(Cc2ccccc2)CCN1[C@H](COc1ccccc1)c1ccccc1,inconclusive: -41.1% [inhibitor]
10,O=C(Cn1c(COc2ccccc2)nc2ccccc21)Nc1cc(Cl)cc(Cl)c1,inconclusive: -34.2% [inhibitor]
11,CC(=O)N(C1=C(N)C(=O)c2ccccc2C1=O)c1ccccc1,inconclusive: -64.8% [inhibitor]
12,Cn1c2ccccc2c(=O)c2cc(C#CC3(O)CCCCC3)ccc21,inconclusive: -75.6% [inhibitor]
13,CC(=O)Nc1ccc(SCC(=O)c2cc(C)n(-c3ccccc3)c2C)cc1,inconclusive: -33.9% [inhibitor]
14,Cc1nc2cc(NC(=O)Nc3ccccc3Cl)ccc2n1C,inconclusive: -44.6% [inhibitor]
15,S=C(NCc1ccco1)N/N=C/c1cccnc1,inconclusive: -32.8% [inhibitor]
16,CCS(=O)(=O)Nc1cccc(-c2ccc3nnc(-c4cccnc4)n3n2)c1,inactive: -7.1%
17,COc1ccc(-n2nc([N+](=O)[O-])c(=NCCc3ccc(OC)c(OC)c3)n2O)cc1,active: -94.3%
18,O=C(NCc1ccccn1)C1CCCN(S(=O)(=O)c2cc(Cl)ccc2Cl)C1 (stereo not given),active: -83.2%
19,COc1ccc(NC(=O)CSc2nnc(-c3ccncc3)o2)c(OC)c1,inactive: -0.522%
20,CSCCC(NS(=O)(=O)c1ccccc1F)C(=O)Nc1cccc(C)n1 (stereo not given),inactive: 2.66%
21,O=S(=O)(Nc1cc(Sc2cccc3cccnc23)c(O)c2ccccc12)c1ccc(F)cc1,active: -98.1%
22,O=C(CNC(=O)c1ccncc1)N/N=C/c1ccc(O)cc1O,inactive: 8.85%
23,O=C(NC1CCC(O)CC1)c1ccc(-c2ccc([N+](=O)[O-])cc2)o1 (stereo not given),inconclusive: -36.3% [inhibitor]
24,Cc1cccc(N=NC(=S)NNc2cccc(C)c2)c1,inconclusive: -31.9% [inhibitor]
25,COC(=O)Cn1c(CN2CCN(c3ccccc3F)CC2)nc2c1c(=O)n(C)c(=O)n2C,inactive: 11%

row,Compound,activity change
1,COc1ccc(Cl)cc1NS(=O)(=O)c1cccc(C(=O)N2CC(C)OC(C)C2)c1 (stereo not given),inconclusive: -31.5% [inhibitor]
2,CCc1ccc(-c2csc(NC(=O)C3=NN(c4ccccc4)C(=O)CC3)n2)cc1,inconclusive: -30.9% [inhibitor]
3,CC(C)(C)OC(=O)N1CCC(c2c(C(=O)N3CCN(C(=O)c4ccco4)CC3)cnn2-c2ccc(F)cc2F)CC1,inconclusive: -36.7% [inhibitor]
4,CCOC(=O)N1CCC(N2CCCC(CO)(Cc3cccc(OC)c3)C2)CC1 (stereo not given),inconclusive: -39.3% [inhibitor]
5,CCOc1ncccc1C(=O)Nc1ccc(C)c(S(=O)(=O)N2CCCCCC2)c1,inconclusive: -34.5% [inhibitor]
6,Oc1cc2c(cc1O)C(c1ccccc1)CNCC2 (stereo not given),inactive: -3.04%
7,O=C(COC(=O)c1c(F)cccc1F)c1ccc[nH]1,inactive: -8.3%
8,O=C1NC2(CCCCCC2)N=C1c1ccc(Br)cc1,inactive: -15.3%
9,N#Cc1ccc(S(=O)(=O)N2CCC(C(=O)N3CCN(Cc4ccc5c(c4)OCO5)CC3)CC2)cc1,inconclusive: -31.8% [inhibitor]
10,Cn1cc(CC(=O)N2CCN(c3ccccc3F)CC2)c2ccccc21,inconclusive: -39.3% [inhibitor]
11,CCc1nnc(NC(=O)CSc2nnc(-c3ccc(NS(=O)(=O)c4ccccc4)cc3)o2)s1,inactive: 0.138%
12,C=CCC1CCCC(=O)N2CCCC12 (stereo not given),inactive: -1.93%
13,Cc1ccc(CC(=O)NC2CCN(C)CC2)cc1,inconclusive: -34.3% [inhibitor]
14,CCn1cc(/C=C(\NC(=O)c2ccc(OC)c(OC)c2)C(=O)NCCCO)c2ccccc21,inconclusive: -31.2% [inhibitor]
15,CN(C)CCCn1c(=O)n(C2CCCCC2)c(=O)c2c3c(sc21)CCCCC3,inactive: -7.63%
16,CC1CCN(C(=O)CC#N)CC1,inconclusive: -42.7% [inhibitor]
17,CC(C)(C)c1cc[n+](C2=C([O-])c3ccccc3C(=O)/C2=N\S(=O)(=O)c2ccccc2)cc1,inconclusive: -42.3% [inhibitor]
18,COc1cc2c(cc1OC)C1=C(C#N)CC/C(=N\S(=O)(=O)c3ccccc3)N1CC2,inactive: -11.6%
19,CC(C)(C)c1ccc(C2/C(=C(\O)c3ccc4c(c3)OCCO4)C(=O)C(=O)N2CCCN2CCOCC2)cc1 (stereo not given),inconclusive: -36% [inhibitor]
20,CN(Cc1c(C(=O)N/N=C/c2cccc(O)c2)nnn1-c1nonc1N)C1CCCCC1,inconclusive: -30.7% [inhibitor]
21,CC(NC(=O)c1ccc(N2CCCC2)c([N+](=O)[O-])c1)c1ccc(S(N)(=O)=O)cc1 (stereo not given),inactive: 16.5%
22,O=C(/C=C/c1cccs1)c1ccc([N+](=O)[O-])cc1,inconclusive: -31.5% [inhibitor]
23,CS(=O)(=O)N1CCN(c2ccc(NC(=O)c3ccc([N+](=O)[O-])o3)cc2)CC1,active: -81.2%
24,CCOc1ccccc1NC(=O)NCCC1=CCCCC1,inconclusive: -30% [inhibitor]
25,COc1ccc(CCC(=O)Nc2ccccc2C(F)(F)F)cc1,inconclusive: -34% [inhibitor]

row,Compound,activity change
1,Cc1cccc(CS(=O)(=O)Cc2ccc(C(=O)NC(C)c3ccccc3)o2)c1 (stereo not given),inactive: 14.8%
2,O=C1NCCC/C1=N/Nc1cc(F)ccc1F,inconclusive: -35.9% [inhibitor]
3,O=C1NC(c2cc(Cl)cc([N+](=O)[O-])c2O)Nc2ccccc21 (stereo not given),inconclusive: -43.5% [inhibitor]
4,O=c1c2c(-c3ccccc3)csc2ncn1/N=C/c1ccc(O)c([N+](=O)[O-])c1,inconclusive: -50.2% [inhibitor]
5,CC(=O)Nc1ccc(S(=O)(=O)NNC(=O)c2cccc([N+](=O)[O-])c2)cc1,inconclusive: -39% [inhibitor]
6,NC(=O)c1ccc(-c2c(-c3ccccc3)sc3ccccc23)cc1,inconclusive: -44.6% [inhibitor]
7,Cc1cccc(NC(=O)NCC(F)(F)F)n1,inactive: -4.77%
8,CCOc1ccc2c(c1)C(N(CCN1CCOCC1)C(=S)Nc1ccccc1OC)CC(C)(C)O2 (stereo not given),inactive: -11%
9,Cc1ccc(S(=O)(=O)N2[C@@H](c3ccccc3F)C(C(=O)O)=CC[C@H]2c2ccc(Cl)c(Cl)c2)cc1,inconclusive: -41.1% [inhibitor]
10,CC(C)n1nc(C(=O)Oc2ccc(Cl)cc2)c2ccccc2c1=O,inactive: 2.65%
11,CCCC(=O)NC(c1ccc(N(C)C)cc1)c1c(O)ccc2ccccc12 (stereo not given),inactive: -7.07%
12,CC(C)c1nnc(NC(=O)c2ccc3c(c2)OCO3)s1,inconclusive: -34.4% [inhibitor]
13,CCN(CC(=O)NCc1cccs1)C(=O)COc1cccc(C(F)(F)F)c1,inconclusive: -32.1% [inhibitor]
14,O=C(COc1cccnc1[N+](=O)[O-])Nc1c(Cl)cccc1Cl,inconclusive: -71.1% [inhibitor]
15,CCOC(=O)N1CCC(N(CCOC)C(=O)Nc2ccc(Cl)c(Cl)c2)CC1,inactive: 2.62%
16,C#CCOCCOCCOCCNc1nc(N2CCN(C(=O)[C@H](CCCCN)n3cc([C@@H](N)[C@H](C)CC)nn3)CC2)nc(N2CCN(C(=O)[C@H](CCC(=O)O)n3cc([C@@H](N)CCCCN)nn3)CC2)n1,inconclusive: -31.3% [inhibitor]
17,C[C@H]1NC(=O)[C@@]2(C)[C@H](c3ccccc3)[C@H]3COc4ccccc4[C@@H]3N2C1=O,inactive: 4.76%
18,CCc1nnc(NC(=O)c2ccc(N3C(=O)CCC3=O)cc2)s1,inconclusive: -30% [inhibitor]
19,FC(F)(F)c1ccc(CN2C[C@@H]3C(c4ccc(C(F)(F)F)cc4)C4(c5cccnc5)CC3(C4)[C@H]2c2ccccc2)cc1 (stereo not given in full),inconclusive: -35.9% [inhibitor]
20,C=CCSc1nc(C)c(Cc2cccc3ccccc23)c(=O)[nH]1,inconclusive: -30.6% [inhibitor]
21,COc1ccc(-c2cc(=O)c3cc(F)ccc3[nH]2)cc1,inactive: -4.56%
22,COc1cccc(C(=O)Nc2nnc(SCC(=O)Nc3ccc(NC(C)=O)cc3)s2)c1,inconclusive: -46.1% [inhibitor]
23,O=C(NC(=S)NNC(=O)c1ccccc1O)c1ccc(F)cc1,inconclusive: -32.8% [inhibitor]
24,CCOc1ccc(NC(=O)NNC(=O)c2ccc3ccccc3c2O)cc1,inconclusive: -32.8% [inhibitor]
25,C[C@H](CO)N1C[C@H](C)[C@H](CN(C)C(=O)Nc2ccc(C(F)(F)F)cc2)Oc2c(NC(=O)c3ccncc3)cccc2C1=O,active: -89.7%

# — PubChem BioAssay AID540267 (National Center for Advancing Translational Sciences (NCATS), 2011)
